Drawing on PubChem BioAssay (NCI), this text covers TGI and GI50 for 2 compounds.

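These data come from cells grown in 96-well plates and exposed to compound for 48 hours at five concentrations. GI50 marks 50% less growth.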 For part of its entries the source gives two or more results. They are shown here; other results are not. An entry can have further records. The tests behind the records often covered other concentration ranges, not given here; a value can be the end of its range.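 Definition used: TGI = concentration required for complete inhibition of growth.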

Some test systems named below: SF-295 CNS; XF 498 CNS; SK-MEL-5 melanoma; HOP-92 NSCLC; CAKI-1 renal; NCI/ADR-RES ovarian; A498 renal; NCI-H23 lung; MCF7 breast; OVCAR-4 ovarian; MALME-3M melanoma; COLO 205 colon; NCI-H460 lung; CCRF-CEM leukemia; NCI-H522 lung; T-47D breast; DMS 273 small cell lung; ACHN renal; SNB-75 CNS; 786-0 renal; DU-145 prostate.
What all share (experiment): DTP human tumour cell line panel, 48 h

In general, TGI refers to the concentration at which net growth stops. A higher TGI goes with lower sensitivity of the cells. In general, GI50 refers to the concentration giving 50% growth inhibition. A higher GI50 goes with lower sensitivity of the cells.

Regarding `COc1ccc(/C=C\c2cc(OC)c(OC)c(OC)c2)c(O)c1O`, the TGI in the assay with SF-295 CNS is 10 µM and 129 nM; in the assay with XF 498 CNS, 21.3 µM and 620 nM; in the assay on SK-MEL-5 melanoma, 76.4 nM and 3.27 µM; in the assay with HOP-92 NSCLC, 29.8 µM and 1.62 µM; in the assay on CAKI-1 renal it was 17.7 µM and 1.64 µM; in the assay with NCI/ADR-RES ovarian, 148 µM [1 test] and 1.36 µM [mean of 3 tests]. Also, the TGI in the assay on A498 renal was 27.1 µM [mean of 3 tests] and 640 nM [mean of 4 tests]; with NCI-H23 lung it was 27 µM and 951 nM; with MCF7 breast it was 1.77 µM and 77.4 µM. In the assay with NCI/ADR-RES ovarian, the GI50 is 3.91 µM [1 test] and 60.8 nM [mean of 3 tests].

For the compound `NC(=Nc1nc(-c2ccccn2)cc2ccccc12)c1ccccn1`, the TGI with OVCAR-4 ovarian was 829 nM and > 100 µM; in the assay with MALME-3M melanoma, 587 nM and 29.2 µM; with COLO 205 colon it was 114 nM and > 100 µM; in the assay with NCI-H460 lung, 464 nM and > 26.6 µM; in the assay with CCRF-CEM leukemia it was 194 nM and < 14.1 nM; with NCI-H522 lung, 509 nM and > 29.1 µM. Further, the TGI is 72 nM and > 20.1 µM in the assay on T-47D breast; 551 nM and 13.1 µM with DMS 273 small cell lung; 647 nM and 8.85 µM with ACHN renal; 894 nM and 21.4 µM in the assay on SNB-75 CNS; 235 nM and 2.57 µM in the assay with NCI/ADR-RES ovarian; 463 nM and 31.7 µM in the assay on 786-0 renal. Besides, the TGI in the assay on A498 renal is 380 nM and 8.46 µM; in the assay with DU-145 prostate it was 545 nM and > 43.9 µM.
